# Test results reported in paper PMC12136788.
# This is one part of the list.
# T1: UNK ZnF1-6 (called full-length) (human, UniProt Q9C0B0 30-357)
# T1 sequence: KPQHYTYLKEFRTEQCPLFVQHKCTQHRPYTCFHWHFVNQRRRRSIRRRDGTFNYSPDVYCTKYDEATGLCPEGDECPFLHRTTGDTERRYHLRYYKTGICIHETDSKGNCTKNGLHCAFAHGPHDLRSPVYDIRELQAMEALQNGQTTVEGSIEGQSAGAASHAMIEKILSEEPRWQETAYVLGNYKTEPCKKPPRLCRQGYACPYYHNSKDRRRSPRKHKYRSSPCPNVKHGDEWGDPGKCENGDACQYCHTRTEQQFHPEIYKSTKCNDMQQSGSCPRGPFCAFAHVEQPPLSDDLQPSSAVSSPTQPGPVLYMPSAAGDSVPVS
# B1: chr17:67075675:67075776:-|3pUTR|ENSG00000198265|unk|total|mutant (ssRNA)
# RNA: GGGAGUUCUACAGUCCGACGAUCAUUCCUUAUUUCCACCGCCAGUCAAGGAUUCUAACGCUGCUUCCAUCUGAUACUCUUCUCCGAUUCUGCAUCAAAUGCUUAUUUUGACUUACAACAAGCUUACUCUUCCUCAGCAUUACACAACAGAGGAUUGAGCAUCA
# B2: chrX:154436128:154436291:+|3pUTR|ENSG00000071553|msi1_unk|total|mutant (ssRNA)
# RNA: GGGAGUUCUACAGUCCGACGAUCAUUCCCGGGUCUCCUUUCUCCUUAUUUAUUCUUGUGGCUACAUCAUCCCUGGCUGUGGACCGUGCUUUUGUGCCGCAAAUGCUCCCUCCUUAAGGUUACCGGGCUCCCUGAGUUUGGGAGCAACAGAGGAUUGAGCAUCA
# B3: chr19:51029091:51029457:-|three_prime_utr|ENSG00000186474|control|control|control (ssRNA)
# RNA: GGGAGUUCUACAGUCCGACGAUCCCUUAACUUGGGUACCCCUCUGGCCCUCAGAGCACCAAUAUCUCCUCCAUCACUUCCCCUAGCUCCACUCUUGUUGGCCUGGGAACUUCUUGGAACUUUAACUCCUGCCAGCCCUUCUAACAACAGAGGAUUGAGCAUCA
# B4: ENSG00000064393:stop:overlap|stop_codon|ENSG00000064393|stop_codon|NA|stop_codon (ssRNA)
# RNA: GGGAGUUCUACAGUCCGACGAUCUCUCCCUGGAGAGUGGUUUUCCUGCUUUUCUGCUGCUAGAAAUGUUGCUGUAUGGGAGCUAGUACAAUAGAAAGUGCCCAGUGACUGCAGGCGACCCUUACCGAGGAUUUUAUUCAAGUACAACAGAGGAUUGAGCAUCA
# B5: chr6:87085629:87085739:-|3pUTR|ENSG00000135346|unk|total|mutant (ssRNA)
# RNA: GGGAGUUCUACAGUCCGACGAUCGUUUUACCAAGUGCUGUCUUGAUGACUGCUGAUUUUCUGGAAUGGAAAAUUAAGUUGUUCCGUGUUUAUGGCUUUGUGAGAUAAAACUCUCCUUUUCCUUACCAUACCACUUUGACACGCCAACAGAGGAUUGAGCAUCA
# B6: chr5:177595998:177596040:+|3pUTR|ENSG00000184840|msi1_unk|FALSE|overlapping (ssRNA)
# RNA: GGGAGUUCUACAGUCCGACGAUCCCUGAGCUGCUUCACAUGGUUGUCCAUUCUGGGGCUUAAAGAACUGGGACCAGACCAAGUAGAGGCCUUGGUGCUGGUUGGGGUGGGGCCUGCAGAGUCUUAGUUACUGAUUUCAUUUUCCAACAGAGGAUUGAGCAUCA
# Target: T1, UNK ZnF1-6 (called full-length)
# Assay: nsRBNS (natural sequence RNA bind-n-seq); RBNS binding buffer (assumed for nsRBNS): 25 mM Tris pH 7.5, 150 mM KCl, 3 mM MgCl2, 0.01% Triton X-100, 500 ug/ml BSA, 20 U/ml SUPERase-In, 4 C; UNK is unkempt and MSI1 is Musashi-1; names of the RNAs are library labels; protein concentration not given here; high values mean tight binding
row,Binder,binding signal [enrichment R]
1,B1,0.657
2,B2,0.954
3,B3,1.19
4,B4,0.569
5,B5,0.475
6,B6,1.42
